Source: the supplement of paper PMC10126150
Sequences with one replicate were seen in a single cluster, so their values are uncertain.

System: ATP
Assay: switch fluorescence ratio, 500 uM ATP over buffer (Cy3 cluster intensity, sum of 5 cycles each) (fold (ratio)); higher = stronger signal-on switching upon ATP binding; sequences stand for … in TCGTCGGCAGCGTCAGATGTGTATAAGAGACAGTTTTTTTTTTTTTTTTTTTTTTTTT…TC
Conditions: aptamer strand: ATP DNA aptamer (quencher-CACCTGGGGGAGTATTGCGGAGGAAGG + anchor), 100 nM annealed; ATP concentration: 500 uM; one replicate
Method in brief: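 Five buffer/ATP imaging cycles were run on Cy3-labelled switching-strand clusters on a modified Illumina MiSeq flow-cell, with NaOH stripping and re-annealing between cycles. In each cycle, clusters annealed to 100 nM quencher-labelled ATP aptamer were imaged in selection buffer, then after 15 min with 500 uM ATP at 22 °C. Per cluster, the fluorescence ratio is summed target-cycle over summed buffer-cycle Cy3 intensity, averaged per switch-domain sequence. Only clusters within 100-1000 RFU were kept.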
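Further: ATP exposure 15 min at 22 °C before imaging.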

Sequence | switch fluorescence ratio
CGCTGGGATC | 1.06
TCAGTGTCGC | 0.976
ATTTTAGGCG | 0.932
ACAGGCGCAA | 1.1
TTCCTCACGA | 2.12
CGGAAGAGAG | 0.971
TAAGCTCAAC | 1.03
TACTGGAACG | 1.1
AGGGCGTTT | 0.991
GCGCCCCCCT | 0.987
GCATTCACGG | 1.13
GCAGACAGGT | 0.998
CGGATTGTTC | 0.988
TGTAGTACAG | 1.04
ATAGGCCGGT | 0.989
GTTCGTAGTG | 0.951
CAAGGCCAAC | 0.975
TTCGGATACT | 0.98
ATTGGGATAT | 1.04
TAAGAATAAT | 1.01
TTTAGTTACC | 1.01
AGGGTAGAGA | 1.05
GCGACGGGTA | 1.12

Sequence | switch fluorescence ratio
CTTTATCTTG | 0.975
CATGGTTTGG | 1.02
TGGAAACAGA | 0.989
GGACTTGGAG | 0.939
ACCGAATAAG | 1.19
CACACAAAGT | 1.05
GTTGCGAGCC | 1.05
AATGTTGCCT | 1.03
CCGAGGTATT | 2.28
GAAGTTTTTC | 1.06
GCTGGTCTAT | 1.01
AGTATCTTA | 1.02
ATATTAGAAT | 0.981
GTATACGGGT | 1.06
ACTGCCGGGA | 1.02
TTTTGCAATC | 2.65
TCACCCTATT | 1.09
TTAGGCTGAA | 1.02
GATTGCGGGG | 0.977
TCGTGGGAGG | 0.979
AACGTGCGCG | 1.01
GATGAACTGG | 0.96
ATGACGGCTA | 0.993

Sequence | switch fluorescence ratio
TCTGGGCCC | 0.997
TTGCCAAAAA | 4.89
GATTCAAGTT | 0.987
GCTCACTTCT | 0.99
TGGTCGAAGA | 0.951
GGGTGTGGAT | 1
ATTCGTTCT | 0.961
ATATATTTGG | 0.968
TTTATGTTCT | 0.999
GGAGCTAATT | 3.42
GTGGAATCGA | 1.01
GTGAATGCGT | 1.01
GCATAAATAC | 1.43
GCGGACCGTA | 1.04
AGCAGTCTGG | 0.957
ACAATGCCGT | 0.977
ACGGGCAGGA | 1.04
GTCTGCCTCT | 0.985
AATAAATCTC | 0.969
AAGCTTAATT | 0.984
GTACCACGGC | 1.02
GTTCTTTGAG | 0.938
AAACTTCTTT | 1.01

Sequence | switch fluorescence ratio
TCCGCTTATG | 1.59
CATACGTTGG | 0.961
TCAAGGGC | 1.06
TTATAACTCT | 0.981
TAACGATCTC | 0.975
AATGCCCGAG | 0.98
GCCACCCTTG | 0.978
AGCGTTCGGG | 1.01
GCTAATAAGC | 0.959
GCTATGGTCA | 1.03
CGAGGTACCT | 0.993
AACTAATGCG | 0.968
GGAAATATAA | 1.01
AGGTGCAAGG | 1
ATTTCTTTGA | 0.973
CGGATTCTGA | 0.967
ATATGAAGTC | 0.967
CCCATTAATC | 1.01
CATCTTGCTG | 1.02
TTACTCCATT | 1.27
ACATTGCGAG | 1
TTAGCCGCCC | 1.46
TCCAGGATCA | 0.965

Sequence | switch fluorescence ratio
GGTCTCAAAC | 1.05
AAATCTCTGG | 0.975
TCCCGATGTG | 1.11
TTGGTATGCC | 0.976
ATATTAGCTC | 0.989
CGTGGTCCTC | 1.01
ACTGCGCTTA | 2.41
ATATTAGTGC | 0.949
TCCGGAATGT | 1.71
TTCTGGGGAC | 1.92
TCACTGGAGT | 0.971
CTAATAAATG | 0.979
TCGGAAACCT | 3.25
CCATCTGTG | 1.02
AGCACAATAT | 1.26
ATTAAATTTG | 0.991
AATTCTAACA | 1.01
AACTACTTAC | 1.48
CTGTCAAATC | 1.12
ACCGCACACT | 2.38
ACCCTCCCCG | 2.17
GCATCGACTG | 1.05
GGATATGGT | 1

Sequence | switch fluorescence ratio
CTTGAGAAGG | 0.995
AATTTTCATA | 1.01
CACGCCGACG | 1.18
AAGAGAAACA | 1.07
GAAGTGAGAG | 1.04
TACCATTTGG | 1.02
ACTTTCAGAT | 1.04
AGGGTAGTTC | 1
ACAGCTCTTT | 1.03
TTTCGAGACT | 1.02
GCTCTAAGTC | 1.02
ACCTATATGT | 1.06
AGCTTATACC | 1.38
TGTGTGGAAT | 0.971
AGAGGAGGAG | 1.01
GTATAGGTAC | 1.03
AGGCCCCAAG | 1.06
TTCAAGTTTG | 0.972
CGCAGGGGAA | 1.02
GCATATGCAC | 1.04
CCATGTTTAG | 1.02
CATGCGGATA | 1.07
CGCAGTTCAT | 0.958

Sequence | switch fluorescence ratio
CGAGTGAACA | 1.03
ATACACTGCA | 1.13
TCCATGATG | 1
GAGCGCTATA | 1.22
AAGGAGAATG | 1
TTCTCTGTG | 0.998
GCCCGGTCAG | 0.996
TTCGCGCGTA | 0.984
GCATTGCTAG | 1.03
GTGTCCTAGG | 0.966
TCATGTATAG | 0.995
GCTTGATCTG | 1.01
CTCACTAATG | 1.07
GCAATAACCG | 1.26
TTGGTTATC | 0.989
GCATATGGTG | 1
ATTGATAATG | 1.02
AAGTTCTGA | 1.01
TTGCTCCAGT | 1.01
